Laboratory results as given in ChEMBL document CHEMBL4888484, “Replenishing the malaria drug discovery pipeline: Screening and hit evaluation of the MMV Hit Generation Library 1 (HGL1) against asexual blood stage Plasmodium falciparum ,using a nano luciferase reporter read-out” (2022).
About 540 (0.36%) of roughly 150,000 compounds showed an effect of 50% or more. The list shows a part of the results.

These compounds were tested on Plasmodium falciparum (assay: Primary screen in NF54 nanoGlo assay, in single point, at 2uM, 72h; a lower Z score goes with more inhibition). Conditions: timepoint 72 hour.
Format: functional, Erythrocyte

Row | SMILES | % Inhibition | Z score
1 | CCCn1nnnc1CN1CCC[C@H]1c1nc(C2CCCCC2)co1 | -12% | 2.18
2 | CCC(C)C(C)(O)CNC(=O)Cc1ccc(Cl)s1 (stereo unspecified) | -13% | 2.08
3 | CCOC(=O)N1CCN(c2cc([C@H]3CCOC3)nc(COC)n2)CC1 | 4% | -0.58
4 | CC(C)[C@@H]1CN(CCCn2cccn2)CCCN1Cc1ccc(F)cc1 | 1% | -0.19
5 | CN(CC1CCOC1)C(=O)NC(c1ccccc1F)C1CCCC1 (stereo unspecified) | -12% | 1.53
6 | CC(C)c1nnc(N2CCC[C@H](C(F)(F)F)C2)s1 | 6% | -0.94
7 | COc1cccc(N2CCN(C3=NC(=O)[C@@H](C#N)C4(CCCCC4)N3)CC2)c1 | -2% | 0.23
8 | CCC(=O)Nc1cc(NC(=O)N2CCCO[C@@H](C)C2)ccc1OC | -2% | 0.45
9 | COc1ccc(N(Cc2ccco2)Cc2nnc(C3CC3)o2)cc1F | -3% | 0.26
10 | Cc1ccc(CN2C(=O)C3CCCCC3C2=O)cc1S(=O)(=O)Nc1ccc(F)c(F)c1 (stereo unspecified) | 6% | -0.75
11 | O=C1CC[C@@H](CN(Cc2cccnc2)Cc2ccnn2-c2ccccc2)N1 | 4% | -0.9
12 | CCOC(=O)c1cccnc1N1CC[S@+]([O-])C(C)(C)C1 | -4% | 0.46
13 | COc1ccc(-c2nn(-c3ccccc3C)cc2CN(C)Cc2cccnc2)cc1F | 4% | -0.42
14 | CCCCNC(=O)C1CCN(c2nc3ccccc3[nH]2)CC1 | -1% | 0.16
15 | c1cc2cc(-c3nc(CCCN4CCCC4)no3)ccc2[nH]1 | 0% | 0.03
16 | CCc1cnc(C)nc1N1CCC(NCCCc2ccc(F)cc2)CC1 | -9% | 1.12
17 | O=C1C[C@H](c2ccc(F)c(F)c2F)c2cnn(Cc3cccs3)c2N1 | 8% | -1.09
18 | O=C(c1cc(-c2ccc(F)cc2)n[nH]1)N1CC(c2nc(-c3ccccc3)no2)C1 | -2% | 0.28
19 | CCc1ccccc1NC(=O)N1CCC(c2cc(=O)n3nccc3n2C)CC1 | -7% | 1.07
20 | CCC(=O)N1CCc2sc(C(=O)N3CCN(c4ccccc4F)CC3)cc2C1 | -10% | 1.57
21 | CCC1CN(C(=O)C2CC2c2cccc(OC)c2)CC1N(C)C (stereo unspecified) | 8% | -0.97
22 | COc1ccccc1NC(=O)c1c(C)n[nH]c1NCc1ccnn1CC(C)C | -11% | 1.48
23 | Cc1ccc(NC(=O)C2C3C=CC4(CNC(=O)C(c5ccc(C)cc5)N(Cc5ccccc5F)C(=O)C24)O3)cc1 (stereo unspecified) | -2% | 0.38
24 | CN(Cc1nccn1C)C(=O)c1ccc(Oc2ccccc2)o1 | 14% | -1.62
25 | CCc1nnsc1C(=O)NC(C)C1CCCO1 (stereo unspecified) | -7% | 1.32
26 | Cc1ccc(N[C@@](C)(C(=O)NCc2c(C)n[nH]c2C)c2ccccc2)cc1 | 6% | -1.08
27 | COc1ccc(NC(=O)C2CC(c3ccc(F)c(C)c3)CN(Cc3ccccc3Cl)C2)c(OC)c1 (stereo unspecified) | -3% | 0.64

Row | SMILES | % Inhibition | Z score
28 | CN(C)c1nc2c(c(=O)[nH]c(=O)n2C)n1CCc1ccccc1 | -7% | 1.4
29 | OC12CCCCC1[C@H](c1ccc(Cl)cc1Cl)NCC2 (stereo partly specified) | -3% | 0.38
30 | CN1CCCCC[C@H]1C(=O)NC1CCN(S(=O)(=O)c2ccccc2)CC1 | -23% | 2.18
31 | Cc1c(C(=O)N(CCN(C)C)C2CC2)oc2c(Cl)cccc12 | -8% | 0.85
32 | CN(C)c1ncc(CN[C@@H]2CCCC[C@H]2S(C)(=O)=O)n1C | -7% | 0.84
33 | CCc1ncoc1C(=O)N[C@H]1CCc2c1ccc(Cl)c2Cl | -7% | 0.98
34 | COc1ccc(Nc2nc(C)c(NC(=O)c3ccc(F)cc3)c(Nc3ccc(OC)cc3)n2)cc1 | 7% | -1.37
35 | COCC(=O)N1CCCN(C(=O)c2ccc(-c3cc(N)ncn3)cc2)CC1 | -11% | 2.2
36 | CN(CCc1ncon1)C(=O)[C@H]1C[C@@H]1c1ccccc1 | -16% | 3.07
37 | Cc1nnc(NCCn2cncc2-c2ccccc2)nc1C | 5% | -1.05
38 | NC(=O)C1CCN(Cc2cc(Cl)c3c(c2)OCCCO3)CC1 | -5% | 0.66
39 | Cc1cc(NC(=O)NCCCN2CCCCC2)no1 | -5% | 0.72
40 | Fc1cccc(CNc2nnc([C@@H]3Cc4ccccc4O3)o2)c1 | -6% | 0.82
41 | CC1CCN(c2ccc(C(=O)NCCCN3CCCC3=O)cc2NS(=O)(=O)c2ccc(Br)cc2)CC1 | -1% | 0.11
42 | COc1cc(-c2cc(C(=O)N(CCc3ccccc3)CCc3ccccc3)c3ccccc3n2)cc(OC)c1OC | -2% | 0.31
43 | Cc1nc(CC[C@H]2CCN(C(=O)c3noc(C)c3Cn3cccn3)C2)no1 | -2% | 0.31
44 | O=C1CN(c2ccc(NC(=O)c3cnc4ccccc4n3)cn2)CCN1 | -14% | 2.68
45 | CN(C)C(=O)[C@]12CN(Cc3ccccc3)C[C@H]1CN(C(=O)Cc1cccs1)C2 | -19% | 2.55
46 | O=C(Cc1ccccc1F)N1CC[C@H](Oc2cccc(F)c2)C1 | -12% | 1.42
47 | COc1ccc(N(C)C)cc1S(=O)(=O)N1CCCCC1 | -17% | 1.54
48 | COCCCNC(=O)N1CCOCC1 | -5% | 0.65
49 | C[C@@H](C(=O)N(C)CCC#N)N1CCC(CN2CCCCC2=O)CC1 | -5% | 0.71
50 | CNC(=O)c1cc2c(s1)CCN(C(=O)c1cc(C)n3nc(C)cc3n1)C2 | -6% | 1.09
51 | CC(C)(C)C(=O)NCCn1nc(C2CC2)cc1C1CC1 | -3% | 0.35
52 | Cc1cccn2c(CNCCc3ccccn3)c(C(=O)N3CCOCC3)nc12 | -4% | 0.84
53 | O=C(C1c2ccccc2Oc2ccccc21)N1Cc2cncnc2C1 | -5% | 0.85
